Test results from PubChem BioAssay AID588855 (National Center for Advancing Translational Sciences (NCATS), 2011).
Screen size: about 410,000 compounds; about 5,000 (1.2%) were called active. The shares of active, inactive and inconclusive entries below differ from those in the screen. The call rests on the fitted dose curve; in most records, active means well fitted inhibition curve with a large enough effect; inconclusive means small, poorly fitted or top-dose-only effect; inactive means no such curve, though single readings can be large or run the other way. Potencies beside an inconclusive call are fits to weak or partial responses and may not hold up.
On the % scale 0 is the no-effect control and ±100 the full control effect; potency means the concentration at half of the fitted maximal effect; tags describe the fitted curve by direction and shape.

Experiment: qHTS for Inhibitors of TGF-b; further: nearly all actives have a fitted effect of over 65% in size
Conditions: HepG2 CAGA-GFP TGF-b/SMAD3 reporter, GFP fluorescence, 18 h, TGF-beta stimulated, 500 pg/mL final; series mostly up to 46.1 µM; activity, negative = inhibition: at the top concentration
Method in brief: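 Using HEPG2 CAGA-GFP reporter cells at 1000 cells/well, we pinned test compounds, stimulated with recombinant TGF-beta (500 pg/mL final) and measured total well GFP after 18 h.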
With `CCC1(c2ccc(F)cc2)NC(=O)N(CC(=O)N2CCN(S(=O)(=O)c3ccc(Cl)cc3)CC2)C1=O` (stereo unspecified) the “activity, negative = inhibition” value was inactive: -11.4%.
With `CCOC(=O)[C@H]1[C@H]2COc3cc(OC)ccc3[C@@H]2N2C(=O)N(c3cccc(Cl)c3)C(=O)[C@@]12C` the “activity, negative = inhibition” value was inactive: 1.36%.
For `CCN(C1=NS(=O)(=O)c2ccccc21)N(CC)S(=O)(=O)c1ccc(C)cc1`, the “activity, negative = inhibition” value was inactive: -0.0051%.
With `CN(Cc1ccccc1)C(=O)COC(=O)C1CCN(S(=O)(=O)c2ccc3c(c2)OCCO3)CC1` the Potency was inconclusive: 1.58 µM [inhibitor, partial curve, poor fit].
For `O=c1[nH]c(-c2ccc3c(c2)OCO3)nc2c1sc(=S)n2-c1ccccc1`, the “activity, negative = inhibition” value was inactive: -2.36%.
With `CCOC(=O)C(=Cc1ccccc1)C(=O)c1ccccc1` the Potency was inconclusive: 35.5 µM [inhibitor, single point].
For `COc1ccc(C(=O)c2ncc(C(F)(F)F)cc2Cl)cc1`, the Potency was inconclusive: 1.12 µM [inhibitor, partial curve, poor fit].
For `O=C(Cc1ccccc1[N+](=O)[O-])Nc1ccccc1C(=O)N1CCOCC1`, the Potency was inconclusive: 6.31 µM [inhibitor, single point].
With `CN(C(=O)COC(=O)C1CCN(S(=O)(=O)c2ccc3c(c2)OCCO3)CC1)c1ccccc1` the Potency was inconclusive: 2.24 µM [inhibitor, partial curve].
In the case of `CC1CCCN(S(=O)(=O)c2ccc(NC(=O)Cn3nnc(-c4ccccc4F)n3)cc2)C1` (stereo unspecified), the Potency is reported as inconclusive: 35.5 µM [inhibitor, single point].
For `CCOc1ccc(NC(=O)CC2C(=O)N(c3ccc(F)cc3)C(=O)N2CCc2sccc2C)cc1` (stereo unspecified), the Potency was inconclusive: 12.6 µM [inhibitor, single point].
For `Brc1ccc2c(c1)[C@H]1OCC[C@H]1[C@@H](c1cccs1)N2`, the Potency was inconclusive: 12.6 µM [inhibitor, partial curve, poor fit].
With `O=C(NNc1cc(N2CCCC2)nc(N2CCCC2)n1)c1ccc([N+](=O)[O-])cc1` the “activity, negative = inhibition” value was inactive: 2.25%.
With `FC(F)(F)c1ccc(Cl)c(NC(=S)N/N=C/c2ccccc2C(F)(F)F)c1` the “activity, negative = inhibition” value was inactive: 0%.
With `COc1ccc(OC)c(N(C(=O)c2ccco2)C(C(=O)NC2CCCC2)c2cc(OC)c(OC)c(OC)c2)c1` (stereo unspecified) the “activity, negative = inhibition” value was inactive: -11.4%.
With `CC(C(=O)N1CCCCC1)N1CCN(S(=O)(=O)c2ccc(Cl)cc2)CC1` (stereo unspecified) the “activity, negative = inhibition” value was inactive: -0.874%.
With `O=C(c1ccc2nccnc2c1)N1CCN(c2ccccc2)CC1` the “activity, negative = inhibition” value was inactive: -1.56%.
In the case of `CCN(CC)CCCNC(=O)CSc1nc2nc(C)c(Cc3ccccc3C)c(C)n2n1`, the Potency is reported as inconclusive: 2.82 µM [inhibitor, single point].
For `COc1ccc(NC(=O)Cn2nc(SC)c(S(=O)(=O)c3ccc(C)cc3)c2N)cc1OC`, the Potency was inconclusive: 12.6 µM [inhibitor, partial curve, poor fit].
In the case of `CCCc1nc2ccc(C)cn2c1Cc1cccc(Cl)c1`, the Potency is reported as inconclusive: 17.8 µM [inhibitor, partial curve, poor fit].
With `O=c1c2ccccc2sc2c(CO)ccc(NCCN3CCCCC3)c12` the Potency was inconclusive: 10 µM [inhibitor, partial curve, poor fit].
In the case of `COC(=O)c1c(NC(NC(=O)CC(C)C)C(Cl)(Cl)Cl)sc2c1CCC2` (stereo unspecified), the Potency is reported as inconclusive: 35.5 µM [inhibitor, single point].
With `COc1ccccc1CNc1nc(NCCOc2ccccc2)c2sccc2n1` the Potency was inconclusive: 35.5 µM [inhibitor, single point].
In the case of `Cc1nc(COC(=O)c2cc(O)c3ccccc3c2O)cs1`, the Potency is reported as inconclusive: 2.51 µM [inhibitor, full curve, poor fit].
With `Cc1ccc(C)c(N2CCN(C(=O)C3CCN(S(=O)(=O)c4ccc5[nH]c(=O)oc5c4)CC3)CC2)c1` the Potency was inconclusive: 22.4 µM [inhibitor, single point].
In the case of `O=C(CN(Cc1ccccc1)S(=O)(=O)c1ccccc1)N/N=C/c1ccccc1[N+](=O)[O-]`, the Potency is reported as inconclusive: 12.6 µM [inhibitor, single point].
In the case of `CCCN(CC(=O)Nc1ccc(F)c(F)c1F)C(=O)c1ccc(N2CCCC2=O)cc1`, the “activity, negative = inhibition” value is reported as inactive: -4.42%.
With `CSc1nc2ccc3nc(NC(=O)C4COc5ccccc5O4)sc3c2s1` (stereo unspecified) the Potency was inconclusive: 35.5 µM [inhibitor, single point].
With `COc1ccc(N(CC(=O)NCc2ccc(Cl)cc2)S(=O)(=O)c2c(C)nn(C)c2C)cc1` the “activity, negative = inhibition” value was inactive: -4.59%.
In the case of `Cc1nc([N+](=O)[O-])c(Br)n1CC(=O)c1ccc(Cl)cc1`, the Potency is reported as inconclusive: 20 µM [inhibitor, single point].
In the case of `Cc1cc(SCC(=O)N(C)CC(=O)Nc2ccc(F)cc2)nc2ccccc12`, the Potency is reported as inconclusive: 10 µM [inhibitor, partial curve, poor fit].
For `COc1cc(NC(=O)c2c(F)c(F)c(OC)c(F)c2F)ccc1NC(=O)c1cccs1`, the “activity, negative = inhibition” value was inactive: 14.2%.
With `CCNS(=O)(=O)c1cc(-c2nnc(Nc3cccc(C(F)(F)F)c3)c3ccccc23)ccc1C` the Potency was inconclusive: 6.31 µM [inhibitor, single point].
In the case of `CCN(CC)CC(=O)Nc1c2c(nc3ccccc13)N(C)CC2`, the Potency is reported as inconclusive: 0.562 µM [inhibitor, full curve, poor fit].
For `C=C1CCC[C@]2(C)C[C@H]3OC(=O)C(CNC(C)CC)[C@H]3CC12` (stereo partly specified), the Potency was inconclusive: 25.1 µM [inhibitor, single point].
With `COc1ccc(NS(=O)(=O)c2cccc(-c3n[nH]c(=S)n3Cc3ccccc3)c2)cc1` the Potency was inconclusive: 14.1 µM [inhibitor, single point].
For `Cc1nc(NC2=NCN(CCCN3CCOCC3)CN2)nc2c(C)cccc12`, the Potency was active: 15.8 µM.
For `COCc1cc(S(=O)c2ccc(Cl)cc2)nc(C)n1` (stereo unspecified), the Potency was inconclusive: 3.55 µM [inhibitor, full curve].
For `CCOC(=O)C1=CC[C@@H](c2ccc(OC)cc2)N(S(=O)(=O)c2ccc(C)cc2)[C@H]1CC`, the Potency was inconclusive: 22.4 µM [inhibitor, single point].
With `O=C(O)c1ccc(N/N=C/C=C/c2ccccc2[N+](=O)[O-])cc1` the “activity, negative = inhibition” value was inactive: -1.83%.
For `CCOc1ccc(N2C(=O)CC(Sc3nnnn3-c3ccccc3)C2=O)cc1` (stereo unspecified), the Potency was inconclusive: 11.2 µM [inhibitor, partial curve, poor fit].
